From PubChem BioAssay AID624171 (National Center for Advancing Translational Sciences (NCATS), 2012)
About 1,200 (0.29%) of roughly 410,000 compounds were called active. Inconclusive results, whose numbers are uncertain, are shown with a selection of clear calls. The call rests on the fitted dose curve; in most records, active means well fitted activation curve with a large enough effect; inconclusive means small, poorly fitted or top-dose-only effect; inactive means flat fitted curve, though single readings scatter. Where the call is inconclusive, the potency comes from a doubtful curve fit.

Assay: qHTS of Nrf2 Activators; further: nearly all actives have a fitted effect of over 65% in size
Settings: AREc32 ARE-luciferase reporter (MCF7-derived line), luminescence, 24 h; series mostly up to 46.1 µM
Outline: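 Cells of the AREc32 ARE-luciferase line are plated in OPTI-MEM containing 5% FBS and left overnight at 37 deg C. Compounds are pinned in, incubation continues 24 hr, and firefly luciferase signal is then measured.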
Potency means the concentration at half of the fitted maximal effect; tags describe the fitted curve by direction and shape.

SMILES | Potency
CC1=NN(c2ccccc2)C(=O)C1/C=C1\C(=O)NC(=O)N(c2cc(C)cc(C)c2)C1=O (centres undefined) | inactive
COc1ccc(CC2c3cc(OC)c(OC)cc3CCN2C)cc1O (centres undefined) | inactive
NN=C1C(Cl)=C(Cl)C(Cl)=C1Cl | inconclusive: 22.4 µM [activator, single point]
COc1ccc(C2C=C(c3ccccc3)Nc3nc(NC(=O)/C=C/c4ccccc4Cl)nn32)cc1 (centres undefined) | inconclusive: 35.5 µM [activator, single point]
Cc1ccccc1Cn1cccc(C(=O)Nc2cc(Cl)ccc2C#N)c1=O | inconclusive: 15.8 µM [activator, partial curve, poor fit]
CC12CCC(O)CC1CCC1C2CCC2(C)C(C3=CC(=O)OC3)CCC12O (centres undefined) | inactive
c1cncc(C2Nc3cccc4cccc(c34)N2)c1 | inconclusive: 31.6 µM [activator, single point]
COc1ccc(-n2c(/C=C/c3ccc(O)c(O)c3)nc3ccccc3c2=O)cc1 | inactive
O=C1c2ccccc2-c2cc3ccccc3cc21 | active: 3.16 µM
C[C@]12CC[C@H](O)CC1=CCC1C2CC[C@]2(C)C(=O)[C@H](Br)CC12 (some centres undefined) | inconclusive: 35.5 µM [activator, partial curve, poor fit]
Cn1ccc(NC(=O)CCl)n1 | inconclusive: 22.4 µM [activator, single point]
N=C1c2ccccc2CN1c1ccc(F)c([N+](=O)[O-])c1 | inconclusive: 15.8 µM [activator, single point]
NC(N)=Nc1ccc2[nH]c3c(c2c1)C[C@@]1(O)[C@H]2Cc4ccc(O)c5c4[C@@]1(CCN2CC1CC1)[C@H]3O5 | inconclusive: 20 µM [activator, single point]
Cc1cc(C)c(C(=O)CN2CCOCC2)c(C)c1 | inconclusive: 31.6 µM [activator, single point]
COC(=O)C1=C(c2ccc3ccccc3c2)C[C@@H]2CC[C@H]1N2C(=O)NCc1ccc(F)cc1 | inactive
Cc1ccccc1-n1c(O)c(C=Nc2ccc(N(C)C)cc2)c(=O)[nH]c1=O | inconclusive: 31.6 µM [activator, single point]
ClCCN(CCCl)c1ccc(-n2cnc3c(Cl)ncnc32)cc1 | inconclusive: 17.8 µM [activator, single point]
O=C(CCl)Nc1nccs1 | inconclusive: 15.8 µM [activator, partial curve, poor fit]
CCOc1ccc(/C=C/C(=O)C(C(N)=O)=C2SCCS2)cc1 | inconclusive: 11.2 µM [activator, partial curve, poor fit]
CCc1ccc(CN2CCN(Cc3cc(Br)ccc3O)CC2)cc1 | inactive
Clc1ccccc1Nc1ncnc(-n2cccc2)n1 | inconclusive: 2.82 µM [activator, full curve, poor fit]
Cc1ccc(NC(=O)c2ccc(Cl)c(S(=O)(=O)NCc3ccco3)c2)c(O)c1 | inconclusive: 11.2 µM [activator, partial curve]
Nc1nonc1C(=O)N/N=C/c1ccc([N+](=O)[O-])o1 | inconclusive: 10 µM [activator, partial curve]

SMILES | Potency
CCOC(=O)c1cc2cc(OC)ccc2n1C1CCN(Cc2ccccc2)CC1 | inactive
CC1=CC2/C=C(\C)CCC(O)C(O)/C=C/C(=O)C23C(=O)NC(CC(C)C)C3C1C (centres undefined) | inconclusive: 3.55 µM [activator, single point]
Cn1c(O)c(C(=Nc2ccccc2)SCc2ccc(Cl)cc2)c(=O)n(C)c1=O | inactive
CCCCCn1c(NC(=O)c2ccco2)c(C(=O)OCC)c2nc3ccccc3nc21 | inconclusive: 3.16 µM [activator, single point]
Cc1ccc2cc(C=C(C#N)C#N)c(Cl)nc2c1 | inconclusive: 15.8 µM [activator, single point]
c1ccc2c(CN3CCCCCCC3)c[nH]c2c1 | inconclusive: 25.1 µM [activator, single point]
C[C@H]1CCCC(=O)CCCCCc2cc(O)cc(O)c2C(=O)O1 | inactive
COC(=O)C(O)(c1ccc(N=Cc2ccccc2O)c(C)c1)C(F)(F)F (centres undefined) | inactive
Cc1ccc(NC(=O)COC(=O)/C=C/c2ccco2)cc1S(=O)(=O)N(C)C | inconclusive: 15.8 µM [activator, single point]
CC12C=CC(=O)CC1CCC1C2CCC2(C)C(O)C(O)CC12 (centres undefined) | inconclusive: 31.6 µM [activator, single point]
Cc1ccc2c(c1)c(C1=c3ccccc3=NC1=O)c(O)n2C | active: 11.2 µM
O=C(/C=C/C=C/c1ccccc1)CC1(O)C(=O)Nc2ccccc21 (centres undefined) | inconclusive: 20 µM [activator, single point]
COc1ccccc1N1CCN(Cc2ccc3c(c2)OCO3)CC1 | inactive
c1ccc2c(c1)OCC(C1=NCCN1)O2 (centres undefined) | inconclusive: 35.5 µM [activator, single point]
CCOc1ccc(CNC(=O)CSc2c3c(nc4cc(Cl)ccc24)CCCC3)cc1 | inconclusive: 10 µM [activator, partial curve]
CCCC(C)c1nnc(NC(=O)CCS(=O)(=O)c2ccccc2)s1 (centres undefined) | active: 22.4 µM
c1ccc(Nc2ccc(Nc3ccccc3)cc2)cc1 | inactive
O=c1[nH]c(=S)[nH]c(O)c1N=Nc1ccc(OC(F)F)cc1 | inconclusive: 17.8 µM [activator, single point]
O=c1oc2cccnc2n1CCS(=O)(=O)c1ccc(F)cc1 | inconclusive: 15.8 µM [activator, partial curve, poor fit]
CC1=C(C(=O)Nc2ccccc2)S(=O)(=O)CCO1 | inconclusive: 28.2 µM [activator, single point]
O=C(Nc1ccccc1[N+](=O)[O-])c1ccc(S(=O)(=O)N2CCCC2)cc1 | inconclusive: 22.4 µM [activator, single point]
C[CH2][Hg][S]c1ccccc1C(=O)O | inconclusive: 3.55 µM [activator, single point]
O=c1c2ccccc2nc(/C=C/c2ccc([N+](=O)[O-])o2)n1-c1ccc(O)cc1 | inconclusive: 0.562 µM [activator, partial curve, poor fit]

SMILES | Potency
CC(=O)OC1CC(OC2C(O)CC(OC3C(O)CC(OC4CCC5(C)C(CCC6C5CCC5(C)C(C7=CC(=O)OC7)C(O)CC65O)C4)OC3C)OC2C)OC(C)C1OC1OC(CO)C(O)C(O)C1O (centres undefined) | inactive
Cc1ccc(-n2sc3ccccc3c2=O)cc1 | inconclusive: 12.6 µM [activator, single point]
O=[N+]([O-])c1ccc(C[n+]2c(-c3ccccc3)cc(-c3ccccc3)cc2-c2ccccc2)cc1 | inactive
CN1CCC(O)(c2ccc(Cl)cc2)C(C(=O)c2ccc(Cl)cc2)C1 (centres undefined) | inconclusive: 25.1 µM [activator, single point]
CC(=O)O[C@H]1CCC2C3CCC4=CC(=O)CCC4=C3C=C[C@@]21C (some centres undefined) | inconclusive: 28.2 µM [activator, single point]
Cc1ccc2c(Cl)cc(Cl)c(O)c2n1 | inconclusive: 22.4 µM [activator, partial curve, poor fit]
O=c1[nH]c(=S)[nH]c(O)c1N=Nc1ccc(S(=O)(=O)N2CCOCC2)cc1 | inconclusive: 25.1 µM [activator, single point]
O=Cc1cn(Cc2ccccc2F)c2ccccc12 | inactive
N=c1c2c(n(Cc3ccc(Cl)cc3Cl)c3c1CCC3)CCCC2 | inactive
CN(C)c1ccc(C(=O)N/N=C/C23CC[C@@H](O)CC2(O)CC[C@@H]2[C@@H]3CCC3(C)C(C4=CC(=O)OC4)CCC23O)cc1 (some centres undefined) | inactive
CCOC(=O)c1c(N)n(CCN2CCCCC2)c2nc3ccccc3nc12 | inactive
COC(=O)C1=C(c2ccccc2)C[C@@H]2CC[C@H]1N2C(=O)NC1CC1 | inactive
CCC(=NCc1ccco1)c1c(O)n(C)c(=O)n(C)c1=O | inactive
N#CC1=C(N)Oc2c(c(=O)oc3ccccc23)C1c1ccccc1OC(=O)c1cccs1 (centres undefined) | active: 11.2 µM
COc1ccc(CCNCc2ccccc2)cc1 | inactive
CN1CCC(O)(c2cccs2)C(C(=O)c2cccs2)C1 (centres undefined) | inconclusive: 35.5 µM [activator, single point]
CN(CCS(=O)(=O)c1ccc(Cl)cc1)Cc1cccnc1 | inconclusive: 15.8 µM [activator, single point]
CCOc1ccc(-n2c(O)c(N=Nc3ccc([N+](=O)[O-])cc3)c(=O)[nH]c2=O)cc1 | inconclusive: 6.31 µM [activator, partial curve, poor fit]
CCCCn1c(O)c(C(=O)/C=C/c2ccc3c(c2)OCO3)c(=O)[nH]c1=O | inconclusive: 6.31 µM [activator, full curve, poor fit]
O=C(COc1ccc(Br)cc1)N1CCN(Cc2c[nH]c3ccccc23)CC1 | inconclusive: 3.16 µM [activator, partial curve, poor fit]
CN(C)c1ccc(/C=C/C=C2/C(=O)NC(=O)N(c3ccccc3)C2=O)cc1 | inconclusive: 4.47 µM [activator, single point]
O=C(c1ccccc1)c1ccc(N=Nc2c(O)[nH]c(=O)[nH]c2=O)cc1 | inconclusive: 3.55 µM [activator, single point]
COc1cccc(CNC(=O)CSc2ccc(-c3ccco3)nn2)c1 | inconclusive: 12.6 µM [activator, partial curve, poor fit]
